{"source": "PubChem BioAssay AID463173", "about": "(ICCB-Longwood Screening Facility, Harvard Medical School, 2010)", "note": "Among all 52,000 compounds or so, about 4,300 (8.3%) were called active. No stated cut-off is given here; in the data, active means survival mostly below about 52% (no sharp cut-off); inactive means mostly above about 56%. This is one part of the list.", "data": [{"tested_on": "DeltatarO mutant", "assay": "S. aureus survival, RN4220 and DeltatarO strains – OD600, teichoic acid synthesis inhibitors, primary screen (AID 463173)", "conditions": "S. aureus RN4220 wild type/DeltatarO growth, OD600, 18 h, active compounds read low, screened at 18.75 µg/mL (by protocol)", "values": [{"compound": "CCOc1ccccc1CNC(=O)C1CCCN(c2ncnc3onc(-c4ccc(F)cc4)c23)C1", "note": "(configuration not stated)", "survival": "inactive: 78%"}, {"compound": "COc1cccc(-c2cc(C(F)(F)F)nc(NCCc3ccccc3)n2)c1", "survival": "active: -8%"}, {"compound": "Cc1ccc(CN2CCc3nc(N4CCN(c5ccccc5F)CC4)ncc3C2)cc1C", "survival": "inactive: 77%"}, {"compound": "COc1ccccc1CCNC(=O)c1ccc2c(c1)c(C)c(C)n2Cc1ccc(Cl)cc1", "survival": "inactive: 91%"}, {"compound": "O=C(NCc1ccccc1Cl)C1CCCN(C(=O)c2cnn(-c3ccccc3)c2-n2cccc2)C1", "note": "(configuration not stated)", "survival": "inactive: 72%"}, {"compound": "OCc1ccccc1CNc1ccc(F)cc1", "survival": "inactive: 98%"}, {"compound": "N#Cc1cnc(SCCc2ccccc2)nc1N", "survival": "inactive: 81%"}, {"compound": "COc1ccc(-n2c(=O)c3c(c4cc(OC)ccc4n3C)n(Cc3cc(C)ccc3C)c2=O)cc1", "survival": "inactive: 97%"}, {"compound": "CCOc1ccc(C(=O)c2cn(CC(=O)Nc3ccc4c(c3)OCO4)c3ccc(OCC)cc3c2=O)cc1", "survival": "inactive: 67%"}, {"compound": "O=C(Cn1ncn2nc(-c3cccs3)cc2c1=O)NCc1cccc(Br)c1", "survival": "inactive: 67%"}, {"compound": "COC(=O)c1cccnc1-n1c(=O)c2cccnc2n(CC(=O)Nc2c(C)cc(C)cc2C)c1=O", "survival": "inactive: 82%"}, {"compound": "CC(=O)N1CCN(c2nc(C3CC3)nc3sc4c(c23)CCCC4)CC1", "survival": "inactive: 77%"}, {"compound": "Cc1ccc(NC(=O)CN2C(=O)COc3ccc(S(=O)(=O)N4CCCCC4)cc32)cc1N(C)C", "survival": "inactive: 99%"}, {"compound": "COc1ccc(OC)c(-c2csc(-c3c(N)c(C(=O)c4ccccc4)n4ccccc34)n2)c1", "survival": "inactive: 74%"}, {"compound": "CCCCOc1ccc(CNC(=O)C2COc3ccc(OC)cc3C2)cc1", "note": "(configuration not stated)", "survival": "inactive: 94%"}, {"compound": "Cn1c(=O)n(C/C=C/c2ccccc2)c(=O)c2c1nc1n2CCN1c1ccccc1", "survival": "inactive: 105%"}, {"compound": "COc1ccc(S(=O)(=O)N(CC(=O)Nc2cccc(C(F)(F)F)c2)c2ccc(C)cc2)cc1", "survival": "inactive: 55%"}, {"compound": "O=C(Nc1c(-c2ccc(F)cc2)nc2ccccn12)c1ccccc1F", "survival": "inactive: 139%"}, {"compound": "COc1ccccc1CNC(=O)c1ccc2c(c1)CCN2S(=O)(=O)c1ccccc1", "survival": "active: 43%"}, {"compound": "CCOC(=O)c1cccc(NC(=O)c2ccc3nc(Cc4ccccc4)oc3c2)c1", "survival": "inactive: 95%"}, {"compound": "Cc1cccc(CNC(=O)c2ccc(NC(=O)N3CC(C)Sc4ccccc43)cc2)c1", "note": "(configuration not stated)", "survival": "inactive: 57%"}, {"compound": "Nc1c(C(=O)c2ccc(F)cc2)sc(Nc2ccccc2F)c1S(=O)(=O)c1ccc(Br)cc1", "survival": "inactive: 67%"}, {"compound": "CC(C)CN(CCNC(=O)CN1C(=O)CSc2ccc(S(=O)(=O)N3CCOCC3)cc21)CC(C)C", "survival": "inactive: 86%"}, {"compound": "Cc1ccc(NC(=O)Cn2c(=O)n(-c3ccccc3)c(=O)c3ccc(C(=O)NCc4ccc5c(c4)OCO5)cc32)c(C)c1", "survival": "inactive: 112%"}, {"compound": "CC(CNC(=O)Cc1ccc(NC(=O)N2CCSc3ncccc32)cc1)c1ccccc1", "note": "(configuration not stated)", "survival": "inactive: 101%"}, {"compound": "Cc1ccccc1NCc1cccn1-c1nnc(N2CCC(C)CC2)s1", "survival": "inactive: 87%"}, {"compound": "COc1ccc(-c2cn3c(n2)sc2cc(C(=O)Nc4cccc(OC)c4)ccc23)cc1", "survival": "inactive: 61%"}, {"compound": "COC(=O)c1scc(-c2ccc(C)cc2)c1S(=O)(=O)Nc1ccc(N(C)C)cc1", "survival": "inactive: 119%"}, {"compound": "CCOC(=O)C1=C(CN2CCN(c3ccccc3F)CC2)NC(=O)NC1c1ccc(Cl)cc1", "note": "(configuration not stated)", "survival": "inactive: 80%"}, {"compound": "COc1ccccc1C(=O)NCCN1CCCC1", "survival": "inactive: 79%"}, {"compound": "Cc1ccc(-n2c3c(c(=O)[nH]c2=O)C(NC(=O)c2ccccc2C)(C(F)(F)F)C(=O)N3)cc1", "note": "(configuration not stated)", "survival": "inactive: 72%"}, {"compound": "N#Cc1c2c(c(N3CCOCC3)[nH]c1=S)CCCC2", "survival": "inactive: 94%"}, {"compound": "Cc1cc2ccccc2n1-c1ccc(C(=O)N2CCC(C(=O)NCc3ccccc3Cl)CC2)s1", "survival": "inactive: 76%"}, {"compound": "COc1ccccc1N1CCN(C(=O)CSc2n[nH]c(-c3ccccc3)n2)CC1", "survival": "inactive: 88%"}, {"compound": "CCOc1ccc(CCNC(=O)c2cc3c(s2)-c2ccccc2OC3)cc1OCC", "survival": "inactive: 67%"}, {"compound": "Cc1ccc(-c2cc(NC(=O)COc3ccc(Cl)cc3C)on2)cc1", "survival": "inactive: 78%"}, {"compound": "COc1ccc(-c2cc(C(F)(F)F)nc(SCC(=O)N3CCC(C)CC3)n2)cc1", "survival": "inactive: 56%"}, {"compound": "O=C(NCc1ccc(Cl)cc1)C1CCN(S(=O)(=O)Cc2ccccc2)CC1", "survival": "inactive: 72%"}, {"compound": "Cc1ccc(CNC(=O)C2CCN(S(=O)(=O)c3cc(-c4noc(C)n4)ccc3C)CC2)cc1", "survival": "inactive: 124%"}, {"compound": "CCOc1ccc(NC(=O)CC2C(=O)N(c3ccccc3)C(=O)N2Cc2ccc3c(c2)OCO3)cc1", "note": "(configuration not stated)", "survival": "inactive: 79%"}, {"compound": "Cc1nc2c(-c3ccccc3)c(C)nn2c(C)c1CCC(=O)NCc1ccc(F)cc1", "survival": "inactive: 94%"}, {"compound": "Cc1c(Cl)cccc1-n1nc(C)c2c(C(=O)NCc3ccccc3)cc(C3CC3)nc21", "survival": "inactive: 69%"}, {"compound": "O=S(=O)(NC1CC1)c1ccc(S(=O)(=O)N2CCC3(CC2)OCCO3)cc1", "survival": "inactive: 93%"}, {"compound": "Cc1ccc(C(=O)Nc2nccs2)c(C)c1", "survival": "inactive: 101%"}, {"compound": "Cn1c(=O)oc2cc(S(=O)(=O)Nc3ccccc3O)ccc21", "survival": "inactive: 130%"}, {"compound": "O=C1C(Nc2ccccc2)=CC(c2ccc(Br)cc2)N1c1ccccc1", "note": "(configuration not stated)", "survival": "inactive: 72%"}, {"compound": "Cc1ccccc1CN1c2ccccc2S(=O)(=O)c2ccccc21", "survival": "inactive: 71%"}, {"compound": "CC(=O)N1CCc2cc(S(=O)(=O)NC(Cc3ccccc3)C(=O)Nc3cccc(C)c3)ccc21", "note": "(configuration not stated)", "survival": "inactive: 111%"}, {"compound": "Cc1nc(NN)nc(NCc2ccccc2)n1", "survival": "inactive: 82%"}, {"compound": "Oc1c(C(c2ccc(F)cc2)N2CCOCC2)sc2nc(-c3ccco3)nn12", "note": "(configuration not stated)", "survival": "inactive: 73%"}, {"compound": "O=C(Cn1ncc2c([nH]c3ccccc32)c1=O)Nc1cccc(C(F)(F)F)c1", "survival": "inactive: 87%"}, {"compound": "Cc1cc(C)cc(N2CC(c3nc(-c4cccc(Cl)c4)no3)CC2=O)c1", "note": "(configuration not stated)", "survival": "active: 37%"}, {"compound": "COc1ccc(CCNc2nccn(-c3ccc(C)c(C)c3)c2=O)cc1OC", "survival": "inactive: 94%"}, {"compound": "Cc1ccc(CNCc2ccccc2)s1", "survival": "inactive: 144%"}, {"compound": "CCc1ccc(N(CC(=O)NCC2CCCO2)S(C)(=O)=O)cc1", "note": "(configuration not stated)", "survival": "active: 66%"}, {"compound": "COc1ccc(C)cc1NC(=O)CSc1nc2ccccc2nc1N1CCOCC1", "survival": "inactive: 73%"}, {"compound": "CC1CCCN(S(=O)(=O)c2ccc3[nH]c(=O)cc(C(=O)NCCc4ccc(Cl)cc4)c3c2)C1", "note": "(configuration not stated)", "survival": "inactive: 69%"}]}]}
